Among all 150,000 compounds or so, about 540 (0.36%) showed an effect of 50% or more. Some of the results follow.
What follows are compounds tested on Plasmodium falciparum (assay: Primary screen in NF54 nanoGlo assay, in single point, at 2uM, 72h; a lower Z score goes with more inhibition). Settings: timepoint 72 hour.
Assay type: functional, Erythrocyte

Compound	% Inhibition	Z score
Cc1cc2n(n1)CCCN(c1cc(-c3ccccc3)nc3cc(C)nn13)C2	-3%	0.64
CCCCOC(C)C(=O)N1CCCC(c2nc(=O)[nH][nH]2)C1 (stereo unspecified)	-11%	2.27
CC1CCCCC1OCCNCc1cnc(N2CCN(C)CC2)nc1 (stereo unspecified)	2%	-0.35
C[C@@H](CS(C)(=O)=O)N(C)c1ncnc2cccc(F)c12	6%	-1.06
CN1CCN(CCOc2ccccc2CN2CCc3[nH]cnc3[C@H]2c2cccnc2)CC1	-2%	0.41
Nc1ccc2c(NCc3cccc(-c4ccccn4)c3)ncnc2n1	-1%	0.2
CNc1cc(-c2ccc(C(=O)NCCN3CCOCC3)cc2)nc(N)n1	-8%	1.38
CN(CCNC(=O)c1cc2occc2[nH]1)C(=O)c1cc2occc2[nH]1	-11%	1.82
Cc1nc(Nc2ccc(N3CCNC(=O)C3)nc2)cc(-c2cccnc2)n1	-5%	1.01
CC(C)(C)OC(=O)N1CCC[C@@H]1CN1CCN(C2CCCC2)CC1	-16%	3.37
Cc1ccc(NC(C)(C)C(=O)N2CCC(N3CCC(O)CC3)CC2)cc1	-3%	0.57
Cc1cnccc1NCCNCc1nc2ccccc2[nH]1	-2%	0.37
Cc1[nH]c2ccccc2c1CC(=O)N1CCC(Nc2ncccn2)C(O)C1 (stereo unspecified)	-3%	0.43
COC1CCOCC1NC(=O)NCC(C)(C)N1CCCCC1 (stereo unspecified)	-4%	0.85
Fc1ccc(Oc2ccnc(CNc3ncnc4[nH]ncc34)c2)cc1	-12%	2.44
CC1CCC(C)N1CCN1CCN(C(=O)NC2CCC3CNCC3C2)CC1 (stereo unspecified)	-7%	1.25
O=C(NC(Cc1cccc(F)c1)c1cccc(F)c1)N1CCCC1CCO (stereo unspecified)	2%	-0.25
O=C1CN(C2CCN(CC3CCCCC3)CC2)[C@]2(CCOC2)CN1Cc1ccccc1	-8%	1.39
Nc1nc(NCCOc2cccc3cccnc23)cc([C@H]2C[C@@H](O)C2)n1	-9%	1.65
CC(C)CN1CC[C@H](CN(C)C(=O)c2cc(COc3ccc4ncccc4c3)on2)C1	-10%	1.73
Cn1ccnc(N2CCC[C@H](NC3CCN(CC(F)(F)F)CC3)C2)c1=O	-9%	1.43
O=C(NCC1CCCN1C1CCCCC1)N1CCN(C2CCNC2)CC1 (stereo unspecified)	-12%	1.8
O=C(Nc1ccc2[nH]ccc2c1)[C@H](Oc1ccc(F)c(F)c1)c1ccccc1	-16%	2.87
Cc1ccc(NC(=O)NCCC2CCN(C)CC2)cc1NC(=O)NCCC1CCN(C)CC1	-8%	1.2
COC[C@@H](O)CN1CCC(NCc2cccc(-c3ccccn3)c2)CC1	-2%	0.26
Cc1ccc(-c2cc(C(=O)N3CCN(c4ncnc5ccccc45)CC3)n[nH]2)cc1	-6%	1.07
Cc1nsc(N[C@H]2CC[C@H](Nc3ccccn3)CC2)c1C#N	2%	-0.48

Compound	% Inhibition	Z score
c1ccc(Cc2noc(CCNc3cc(C4CCNCC4)ncn3)n2)cc1	2%	-0.32
O=C(c1ccc(OCC2CCOCC2)nc1)N1CCN(c2nsc3ccccc23)CC1	10%	-1.81
Cc1ccc(Nc2nc(NCCN3CCOCC3)nc3nccnc23)c(C)c1	-1%	0.21
COc1ccc(CNCC2CCN(C(C)=O)CC2)cc1OCCN1CCOCC1	-4%	0.66
CO[C@@H](C)c1cccc(NC(=O)C(=O)Nc2ccc3[nH]ccc3c2)c1	6%	-0.85
CO[C@H]1C[C@H](NC(=O)Nc2ccc(Oc3cccc(S(C)(=O)=O)c3)cc2)C1	-8%	1.44
NC(=O)c1cccnc1N1CCN(c2ncnc3[nH]ccc23)CC1	2%	-0.28
O=C(NCCN1CCC[C@H](c2ccccc2)C1)N1CCN(c2ccncc2)CC1	12%	-2.14
Cn1cc([C@H]2CCCN(S(=O)(=O)c3c(F)cccc3F)C2)cn1	0%	-0.07
Fc1cccc(-c2cnc(C(F)(F)F)nc2C2CCN(Cc3nc4ccccc4[nH]3)CC2)c1	-3%	0.51
CCC(CC)(CNC(=O)OC(C)(C)C)NCc1cccc(COC)c1	7%	-1.43
CCCCOc1cc(F)ccc1-c1ccc(N(C)C)nn1	-11%	1.92
CN(C)[C@@H](C(=O)NCCCNc1ncccn1)c1cc(Cl)cc(Cl)c1	-5%	0.82
c1ccc2c(c1)CN(c1ncnc3[nH]ccc13)CC1(CCOCC1)O2	25%	-4.48
Cc1nn(C)c2nc(-c3ccccn3)nc(N[C@H]3CC[C@@H](N)CC3)c12	-5%	0.97
CCOc1ccc2nc(CN3CCC(O)(c4cccnc4)CC3)ccc2c1	1%	-0.2
CCc1c(-c2cccc(C(=O)NC[C@@H]3CCCN3)c2)cnn1C	2%	-0.53
N#Cc1cnc(NCCCN2CCC[C@H](O)C2)nc1N	9%	-1.32
Cn1cccc1-c1cc(C(=O)NC[C@@H](c2cccnc2)N2CCCCC2)[nH]n1	-4%	0.54
CN1C(=O)N(CN2CCCCC2)C2C1N(C)C(=O)N2CN1CCCCC1 (stereo unspecified)	-16%	2.8
COc1ccnc(CN2CCC(N3CCC[C@H](C(=O)N4CCCC4)C3)CC2)c1OC	-5%	0.87
N#Cc1ccc(N2CCC(Nc3ccncc3C(N)=O)CC2)nc1	2%	-0.42
COCc1nnc(-c2ccc(Cl)cc2OC)[nH]1	-13%	1.94
C[C@@H](c1ccc(-c2cnn(CCO)c2)cc1)N1CCCCC1	1%	-0.17
OC[C@H]1CCCCN1CCNc1ncnc2[nH]ccc12	-10%	2.16
Cc1cc(NC2COCC2N2CCOCC2)nc(-c2ccccc2)n1 (stereo unspecified)	1%	-0.1
